Experimental data from article PMC4336329 (PLoS ONE, 2015).
Out of some 310,000 compounds screened, about 2,200 (0.71%) showed an effect of 50% or more. The effect is printed as a negative number. The list shows a part of the results.

These compounds were tested against human ether-à-go-go-related gene (hERG) potassium channel (human, UniProt Q12809) (assay: primary screen, population patch clamp on CHO cells stably expressing hERG).
Sequence of human ether-à-go-go-related gene (hERG) potassium channel (Q12809 whole entry, looked up): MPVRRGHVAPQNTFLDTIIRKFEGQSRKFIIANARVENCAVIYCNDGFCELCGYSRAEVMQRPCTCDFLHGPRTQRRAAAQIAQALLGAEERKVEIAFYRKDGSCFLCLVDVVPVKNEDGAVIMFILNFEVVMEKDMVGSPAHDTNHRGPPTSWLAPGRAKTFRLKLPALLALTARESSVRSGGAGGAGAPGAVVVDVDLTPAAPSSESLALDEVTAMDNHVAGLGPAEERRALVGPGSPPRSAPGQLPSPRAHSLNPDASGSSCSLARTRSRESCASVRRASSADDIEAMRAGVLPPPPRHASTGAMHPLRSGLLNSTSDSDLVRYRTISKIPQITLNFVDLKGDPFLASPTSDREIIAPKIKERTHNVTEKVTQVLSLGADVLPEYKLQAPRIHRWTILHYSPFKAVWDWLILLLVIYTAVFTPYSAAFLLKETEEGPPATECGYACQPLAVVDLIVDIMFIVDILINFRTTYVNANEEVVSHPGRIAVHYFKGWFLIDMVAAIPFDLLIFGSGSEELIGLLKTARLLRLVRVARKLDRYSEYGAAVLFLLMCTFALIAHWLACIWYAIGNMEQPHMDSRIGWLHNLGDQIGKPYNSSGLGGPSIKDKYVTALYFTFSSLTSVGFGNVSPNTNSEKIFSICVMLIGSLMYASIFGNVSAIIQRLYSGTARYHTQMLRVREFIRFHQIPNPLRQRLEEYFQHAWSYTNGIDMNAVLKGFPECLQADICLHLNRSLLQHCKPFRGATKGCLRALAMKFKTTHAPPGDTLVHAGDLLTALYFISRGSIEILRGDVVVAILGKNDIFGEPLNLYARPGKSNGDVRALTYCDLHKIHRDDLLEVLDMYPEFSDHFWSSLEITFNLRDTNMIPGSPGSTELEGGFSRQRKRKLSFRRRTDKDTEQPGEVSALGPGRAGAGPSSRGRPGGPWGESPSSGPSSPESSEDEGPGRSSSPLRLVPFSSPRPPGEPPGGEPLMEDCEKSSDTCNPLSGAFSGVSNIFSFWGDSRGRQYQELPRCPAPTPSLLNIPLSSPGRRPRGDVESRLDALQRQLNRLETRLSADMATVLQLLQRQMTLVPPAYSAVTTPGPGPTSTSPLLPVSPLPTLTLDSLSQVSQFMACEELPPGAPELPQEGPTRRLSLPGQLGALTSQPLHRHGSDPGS

Row | SMILES | hERG current change (%, negative = inhibition) at 1uM [%]
1 | CCOC(=O)N1CCN(Cc2nc3c(c(=O)n(C)c(=O)n3C)n2Cc2ccccc2C)CC1 | 1.8
2 | Cc1ccc(NC(=O)C2CCCN2S(=O)(=O)c2ccc3c(c2)CCC(=O)N3)cc1Cl (stereo not drawn) | -13
3 | Nc1c(C(=O)NCc2ccco2)c2nc3ccccc3nc2n1CCN1CCOCC1 | 7.98
4 | Cc1nc2ccc(C(=O)OCc3ccccc3Br)cc2nc1C | 2.2
5 | COc1ccc(CNC(=O)[C@H](Cc2ccccc2)NC(=O)C2CCN(C(=O)[C@H](C)N)CC2)cc1 | 1.72
6 | CC(=O)c1ccc(C(=O)N(C)C2CCCN(Cc3ccccc3F)C2)s1 (stereo not drawn) | -3.2
7 | Br.CCCCCCCCOC(=O)c1c(CSC(=N)N)n(C)c2cc(Br)c(OC(C)=O)cc12 | 3.23
8 | O=C(COc1ccccc1)Nc1cccc(-c2nnc(-c3ccccc3)o2)c1 | 4.9
9 | CC(=O)c1cccc(NC2c3ccccc3C(=O)N2Cc2ccc3c(c2)OCO3)c1 (stereo not drawn) | 0.132
10 | Cc1cc(CSc2ccccc2)ccc1NC(=O)COc1ccccc1C | 2.24
11 | Cc1c(O)c(S(=O)c2ccccc2)c(=O)n(-c2ccccc2)c1-c1ccccc1 (stereo not drawn) | 4.51
12 | COc1ccc(C(C(=O)NC(C)(C)C)N(C(=O)CCC(=O)Nc2cc(C)on2)c2ccccc2F)cc1 (stereo not drawn) | 6.78
13 | C#CCOc1cc(C2C3=C(COC3=O)Nc3cc4c(cc32)OCO4)ccc1OC (stereo not drawn) | 17.7
14 | Cc1c(NC(=O)/C(C#N)=C/c2ccc(-c3cccc(Cl)c3)o2)c(=O)n(-c2ccccc2)n1C | 2.09
15 | OC(CNCC(c1ccc(Cl)cc1Cl)c1c[nH]c2ccccc12)c1ccccc1 (stereo not drawn) | 7.22
16 | COc1cc(SC)ccc1C(=O)N1CCCc2ccccc21 | 14.7
17 | C/C(=N\NC(=O)c1ccccc1)c1c(O)n(Cc2ccccc2)c(=O)[nH]c1=O | 0.925
18 | COc1ccc(Cl)cc1NC(=O)CSc1nnc(CN2CCOCC2)n1-c1ccc(Cl)cc1 | -11.4
19 | O=C(N/N=C\c1ccccn1)C1COc2cc3ccccc3cc2O1 (stereo not drawn) | 9.19
20 | COc1ccccc1C(=O)NCCC(=O)N(C)Cc1ccc(C)o1 | -5.36
21 | N#Cc1cc2ccccc2nc1N | 6.76
22 | Cc1ccc(S(=O)(=O)N2CCN(C(=O)CN3CCOCC3)C2)cc1 | 8.97

Row | SMILES | hERG current change (%, negative = inhibition) at 1uM [%]
23 | CC(=O)c1ccc(NC(=O)CC(NCCC2=CCCCC2)C(=O)O)cc1 (stereo not drawn) | 9.71
24 | O=C(c1ccc(Cl)cc1)c1coc2ccc(O)cc12 | -0.871
25 | COc1cccc(/C=C/C(=O)c2ccc(C)c([N+](=O)[O-])c2)c1 | 5
26 | CC(C)N1OC2CC1c1nc3ccccc3n1C2 (stereo not drawn) | 11.7
27 | COC(=O)c1c(-c2ccccc2)csc1NC(=O)c1ccco1 | 5.64
28 | O=C(C1CCCO1)N1CCN(S(=O)(=O)c2ccccc2)CC1 (stereo not drawn) | 14.1
29 | COc1ccc(OC)c(-n2c(O)c(/C=C3\C(C)=Nc4ccccc43)c(=O)[nH]c2=O)c1 | 11.6
30 | COc1ccc(/C=C/C(=O)Nc2ccccc2)cc1OC | -1.17
31 | O=C1CN(C(=O)COc2ccc(F)cc2Cl)c2ccccc2N1 | 9.81
32 | O=C(CNC(=O)c1ccccc1F)NCc1cccnc1 | 18.5
33 | O=C(c1cc2ccccc2c(=O)o1)N1CCCC1 | 3.4
34 | Cc1ccc(C(=O)CSc2nc(N)cc(=O)[nH]2)cc1 | 8
35 | CN(C)CCN(C(=O)c1ccc2ccccc2c1)c1nc2c(F)cccc2s1.Cl | 9.87
36 | O=C(CCCSc1ccccc1)Nc1nc(-c2ccccn2)cs1 | 6.21
37 | CCOC(=O)c1ccccc1OCc1cc(/C=N/n2cncn2)ccc1OC | 6.43
38 | Cc1ccc(NC(=O)C2CCCN2S(=O)(=O)c2cccc3cccnc23)cc1F (stereo not drawn) | -0.404
39 | COc1ccc(N(C(=O)c2ccncc2)S(=O)(=O)c2ccccc2)cc1 | 6.01
40 | CN(C)c1nc(N)nc(CSc2nc3c(c(=O)n(C)c(=O)n3C)n2Cc2ccccc2F)n1 | 3.73
41 | COC(=O)c1ccc(C(=O)N(Cc2ccccc2)c2ccccc2)cc1 | 8.82
42 | Cc1onc(-c2ccccc2Cl)c1C(=O)NCc1ccc2c(c1)cc(C)n2C | 14.3
43 | COc1cc2[nH]c3c(=O)n(CCN(C(C)C)C(C)C)cnc3c2cc1OC | -0.854
44 | CCN(CC)c1ccc(NC(=O)c2cc3c(OC)cccc3[nH]2)cc1 | 5.86

Row | SMILES | hERG current change (%, negative = inhibition) at 1uM [%]
45 | COc1cc2c(cc1OC)CN(CC(=O)Nc1ccccc1C(=O)NCc1ccccc1)CC2 | 6.38
46 | COc1ccc(OC)c(CNC(=O)COc2cc(=O)n(C)c3ccccc23)c1 | 9.56
47 | CCCCCN1C(=O)Cn2c(nc3ccccc3c2=O)C1C (stereo not drawn) | 7.16
48 | CC(CN1CCN(C)CC1)OC(=O)c1cccc(F)c1.Cl (stereo not drawn) | 10.8
49 | CCC(NC(=O)NNC(=O)c1ccncc1)(C(F)(F)F)C(F)(F)F | 7.06
50 | O=C(c1cn(-c2ccccc2)nc1-c1cccnc1)N1CCN(S(=O)(=O)c2cccc(F)c2)CC1 | -3.38
51 | O=C1c2ccccc2S(=O)(=O)c2cc(N3CCN(c4ccccc4)CC3)ccc21 | 13.3
52 | O=C(COC(=O)C1CCC(=O)N1)Nc1ccc(Cl)cc1Cl (stereo not drawn) | 6.46
53 | CNC(=S)N1CCN(c2nc(-c3ccc(F)cc3)cs2)CC1 | 11.3
54 | Cc1cc(C(=O)CN2C(=O)NC(c3ccccc3)(c3ccccc3)C2=O)c(C)n1Cc1ccco1 | 4.77
55 | O=[N+]([O-])c1ccc(/C=N/n2c(COc3ccccc3)n[nH]c2=S)cc1 | 0.0291
56 | O=C(CN(Cc1ccc(F)cc1)C(=O)CCC(=O)Nc1ccccn1)NCCc1ccccc1 | -9.81
57 | CCOc1ccc(C(=O)N2CCC3(CC2)NCCc2[nH]cnc23)cc1 | -1.01
58 | CC(C)(C)C(=O)NC1(C(F)(F)F)NC(=O)N(Cc2ccccc2)C1=O (stereo not drawn) | 12
59 | CCCN(CC(=O)Nc1ccc(F)c(F)c1F)CC(=O)Nc1c(Cl)cccc1Cl | -4.35
60 | Cc1nnc(SC/C=C/c2ccccc2)n(N)c1=O | 7.98
61 | C/C(=N\NC(=O)c1ccccc1O)c1c(O)n(C2CCCCC2)c(=O)[nH]c1=O | 14.3
62 | CCN1C(=O)c2ccccc2Sc2ccc(C(=O)NCCC(C)C)cc21 | 8.37
63 | Cc1ccc(C(=O)N2CCC(n3nccc3NC(=O)C3CCOC3)CC2)cc1 (stereo not drawn) | 9.71
64 | CCCCC(=O)O | 6.91
65 | Br.CCCCn1c(=N)n(CC(=O)O)c2ccccc21 | 15.9
66 | O=C(NC(=S)Nc1cccc2c(O)cccc12)c1ccccc1[N+](=O)[O-] | 10.7

Row | SMILES | hERG current change (%, negative = inhibition) at 1uM [%]
67 | CCN1CCC[C@H]1CNC(=O)c1cc(S(N)(=O)=O)ccc1OC | -2.47
68 | Cc1cccc2[nH]c(CCNC(=O)C3CCC(=O)N(CCc4cccc(F)c4)C3)nc12 (stereo not drawn) | 14
69 | Cc1ccc(S(=O)(=O)Nc2c(C(=O)O)[nH]c3ccccc23)cc1C | 7.92
70 | COC(=O)c1cc(NC(=O)Cc2ccccc2[N+](=O)[O-])ccc1Cl | 0.557
71 | CNS(=O)(=O)c1cccc(C(=O)OCCCOC(=O)c2cccc(S(=O)(=O)NC)c2)c1 | 17.3
72 | O=C(NCc1cn2ccccc2n1)c1ccccc1 | 14.4
73 | CCc1ccc(OC(=O)CN2C(=O)c3ccccc3C2=O)cc1 | 14.8
74 | CC(=O)NNC(=O)c1cc2c3ccccc3n(C)c2s1 | 17.3
75 | Cc1ccc2[nH]c(C)c(CC(=O)NCc3ccccc3)c2c1 | 11.3
76 | CCOc1ccc2nc(NC(=O)CSc3nc4ccccc4c(=O)n3Cc3ccco3)sc2c1 | -7.95
77 | Cc1ccc(OCc2cccc(S(=O)(=O)N(C)C)c2)c([N+](=O)[O-])n1 | 14
78 | CCOC(=O)N1CCN(S(=O)(=O)c2c[nH]c(C(=O)OC)c2)CC1 | 17.1
79 | CC(C)(C)c1ccc(C(=O)NCCC(=O)N2CCN(c3ncccn3)CC2)cc1 | 0.386
80 | CC(C)C1N(C(=O)N(C)C)CCN1S(=O)(=O)c1ccccc1 (stereo not drawn) | 16.3
81 | CC(C)(C)N1OC2CC1c1nc3ccccc3n1C2 (stereo not drawn) | 17.7
82 | O=S(=O)(NC1=NCCCCC1)c1ccc2sc(NS(=O)(=O)c3ccc4ccccc4c3)nc2c1 | 11
83 | Cc1cc(NCCN(C)C)n2nc(-c3cccs3)cc2n1 | -12.5
84 | Cc1nc2ccccc2n1/N=C/c1ccc([N+](=O)[O-])o1 | -29
85 | COc1ccccc1OCCCOc1cccc(/C=C2\SC(=O)NC2=O)c1 | 14.7
86 | COc1cccc(CNC(=O)CCC2CCCN(C(=O)c3cc(C)on3)C2)c1 (stereo not drawn) | 1.15
87 | C=CCOc1c(Br)cc(CNn2nnnc2N)cc1OCC | 10.4
